Experimental data: the supplement of paper PMC7826260
The other results are listed elsewhere or left out. One pool of 16,384 single-stranded DNAs met each Rep nickase domain in vitro for 1 h at 37 °C with 3 µM enzyme; only the middle of the 90-letter strands is printed. A value is the log2 ratio of uncut reads to the pool without enzyme; more negative means more cut, near 0 not cut, and no call is made. Counts are relative to all reads; uncut strands gain when others are lost, and binding without cutting may add a little.

Tests used:
Assay in all cases: uncleaved DNA left, log2 of reads against the no-enzyme library (log2 ratio); higher = less cleavage (more negative = more Rep cleavage of the k-mer); sequences stand for … in CTCGTCCG…ACCGGAGA
[1] = test system: T1, Rep nickase domain of Muscovy duck circovirus
T1 sequence (Rep 1-111, printed without the tag): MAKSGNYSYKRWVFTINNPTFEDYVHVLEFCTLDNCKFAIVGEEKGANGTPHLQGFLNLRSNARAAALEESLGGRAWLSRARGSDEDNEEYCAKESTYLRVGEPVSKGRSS
Method: (§1)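 A pool of 90-nt single-stranded DNAs with seven random bases just before the constant AC of the nick site (name = the seven bases) was cut by 3 µM recombinant His6-SUMO-tagged Rep nickase domain (300 nM DNA, 50 mM HEPES pH 8.0, 50 mM NaCl, 1 mM MnCl2, 1 h, 37 °C, three replicates). Uncut DNA was amplified and sequenced.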

[2] = test system: T2, Rep nickase domain of banana bunchy top virus
T2 sequence (Rep 1-94, printed without the tag): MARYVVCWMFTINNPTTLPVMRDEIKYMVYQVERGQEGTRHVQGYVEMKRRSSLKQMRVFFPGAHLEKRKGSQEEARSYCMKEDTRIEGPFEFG
Method: as §1

[3] = test system: T3, Rep nickase domain of cabbage leaf curl virus
T3 sequence (Rep 1-116, printed without the tag): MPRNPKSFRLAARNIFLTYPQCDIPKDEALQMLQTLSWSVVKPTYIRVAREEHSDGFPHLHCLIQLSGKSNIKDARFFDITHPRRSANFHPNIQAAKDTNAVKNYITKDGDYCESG
Method: as §1

[4] = test system: T4, Rep nickase domain of chickpea chlorotic dwarf virus
T4 sequence (Rep 1-124, printed without the tag): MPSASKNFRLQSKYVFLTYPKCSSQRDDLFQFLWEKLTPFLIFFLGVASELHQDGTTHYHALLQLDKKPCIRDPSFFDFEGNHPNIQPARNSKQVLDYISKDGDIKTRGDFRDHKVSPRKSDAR
Method: as §1

[5] = test system: T5, Rep nickase domain of faba bean necrotic yellows virus
T5 sequence (Rep 1-98, printed without the tag): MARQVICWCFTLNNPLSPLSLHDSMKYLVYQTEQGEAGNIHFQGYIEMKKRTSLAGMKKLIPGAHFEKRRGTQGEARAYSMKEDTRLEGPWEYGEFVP
Method: as §1

[6] = test system: T6, Rep nickase domain of maize striate mosaic virus
T6 sequence (Rep 1-117, printed without the tag): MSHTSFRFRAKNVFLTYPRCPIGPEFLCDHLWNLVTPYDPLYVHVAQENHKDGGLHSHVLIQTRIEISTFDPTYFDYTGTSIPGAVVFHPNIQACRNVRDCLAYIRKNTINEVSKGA
Method: as §1

[7] = test system: T7, Rep nickase domain of porcine circovirus 2
T7 sequence (Rep 2-116, printed without the tag): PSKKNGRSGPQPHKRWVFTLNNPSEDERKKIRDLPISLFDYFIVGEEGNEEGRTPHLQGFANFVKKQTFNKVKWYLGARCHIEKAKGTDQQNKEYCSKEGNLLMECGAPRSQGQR
Method: as §1

[8] = test system: T8, Rep nickase domain of tomato golden mosaic virus
T8 sequence (Rep 1-124, printed without the tag): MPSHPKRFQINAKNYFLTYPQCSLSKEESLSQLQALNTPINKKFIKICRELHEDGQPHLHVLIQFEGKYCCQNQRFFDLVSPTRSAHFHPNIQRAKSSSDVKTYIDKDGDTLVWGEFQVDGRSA
Method: as §1

[9] = test system: T9, Rep nickase domain of tomato yellow leaf curl virus
T9 sequence (Rep 1-136, printed without the tag): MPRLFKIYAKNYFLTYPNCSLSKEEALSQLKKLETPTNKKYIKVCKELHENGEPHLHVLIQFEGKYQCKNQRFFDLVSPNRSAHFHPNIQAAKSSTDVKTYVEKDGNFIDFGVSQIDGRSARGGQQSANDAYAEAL
Method: as §1

[10] = test system: T10, Rep nickase domain of wheat dwarf virus
T10 sequence (Rep 1-137, printed without the tag): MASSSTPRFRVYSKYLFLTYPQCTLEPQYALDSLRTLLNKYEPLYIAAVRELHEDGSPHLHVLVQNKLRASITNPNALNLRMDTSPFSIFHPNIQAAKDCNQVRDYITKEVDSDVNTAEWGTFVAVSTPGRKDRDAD
Method: as §1

| Sequence | uncleaved DNA left (log2) [1] | uncleaved DNA left (log2) [2] | uncleaved DNA left (log2) [3] | uncleaved DNA left (log2) [4] | uncleaved DNA left (log2) [5] | uncleaved DNA left (log2) [6] | uncleaved DNA left (log2) [7] | uncleaved DNA left (log2) [8] | uncleaved DNA left (log2) [9] | uncleaved DNA left (log2) [10] |
| --- | --- | --- | --- | --- | --- | --- | --- | --- | --- | --- |
| GAAGAGG | -0.0361 | 0.021 | 0.403 | 0.854 | 0.0357 | 0.778 | 0.136 | 0.159 | 0.0467 | 0.0698 |
| CAGACAG | -0.0435 | 0.0987 | -0.0737 | 0.158 | 0.116 | -0.399 | 0.184 | 0.0626 | 0.0168 | 0.0243 |
| TCGAGCC | -0.00738 | -0.000936 | 0.0782 | 0.402 | 0.00504 | -0.0704 | -0.578 | -0.0759 | -0.0249 | 0.0314 |
| TATCGAC | 0.058 | 0.0639 | -0.00821 | 0.121 | -0.0235 | -0.00529 | 0.0652 | 0.0644 | 0.00218 | 0.0424 |
| GCTAAAT | 0.0214 | -0.0672 | 0.0714 | 0.299 | -0.0806 | 0.191 | -0.144 | -0.113 | 0.00657 | 0.0545 |
| CGTCAAA | 0.0636 | 0.118 | 0.231 | 0.248 | 0.105 | -0.0923 | -0.0186 | 0.0893 | 0.0659 | 0.149 |
| GACAGCC | -0.0566 | -0.0309 | 0.368 | 0.807 | 0.0105 | 0.471 | 0.0224 | -0.145 | -0.11 | -0.0754 |
| AAACGTT | -0.0143 | -0.0717 | -1.53 | -2.39 | -0.0399 | -0.889 | -1.12 | -0.0449 | 0.0793 | -0.733 |
| CGACCGC | -0.0519 | -0.0194 | 0.216 | 0.143 | -0.105 | -0.159 | 0.0734 | -0.11 | -0.0257 | 0.144 |
| AGTCGTG | -0.00242 | 0.00362 | -0.18 | -0.196 | -0.0513 | -0.536 | 0.236 | -0.059 | 0.0645 | 0.024 |
| ACGGCTG | -0.0661 | -0.07 | -0.00665 | 0.665 | -0.0177 | 1.39 | 0.103 | 0.119 | -0.0196 | -0.0552 |
| GAAGCTC | 0.152 | 0.108 | 0.243 | 0.36 | 0.0581 | 0.787 | -0.0561 | 0.138 | 0.0505 | 0.00745 |
| GCGCATC | -0.0592 | -0.0586 | 0.157 | 0.59 | -0.182 | 0.259 | 0.0502 | -0.161 | -0.0928 | -0.096 |
| TCACCCT | -0.207 | -0.0625 | -0.26 | -2.34 | -0.132 | -0.485 | -0.883 | -0.149 | -0.0742 | -0.221 |
| GTTTTAA | -0.0784 | 0.095 | 0.292 | 0.79 | -0.00268 | 1.78 | 0.133 | 0.117 | 0.115 | 0.00132 |
| GTGACCC | -0.115 | 0.0209 | 0.327 | 0.977 | -0.0186 | 1.64 | -0.0391 | -0.0138 | 0.0436 | 0.0436 |
| CTCGAGG | -0.0927 | -0.177 | 0.362 | 1.11 | -0.162 | 1.38 | -0.0391 | -0.197 | -0.31 | -0.136 |
| GTGCCGT | -0.0456 | 0.033 | -0.0488 | 0.344 | -0.107 | -0.0975 | -0.0442 | -0.185 | -0.0474 | -0.0581 |
| GACTCTA | 0.0434 | -0.02 | 0.0758 | -1.31 | 0.0327 | 0.693 | -1.55 | 0.00629 | 0.00766 | 0.141 |
| GGCCTTG | 0.0486 | 0.137 | 0.237 | 0.626 | 0.125 | 1.34 | 0.205 | 0.084 | -0.00515 | 0.114 |
| CTAGTGT | -0.00395 | 0.0437 | -0.153 | -0.439 | 0.0102 | -0.615 | -0.0425 | -0.0158 | 0.106 | -0.0305 |
| AGCCCAC | 0.117 | 0.0348 | 0.183 | 0.825 | -0.0991 | 0.983 | -0.00256 | 0.0514 | 0.0763 | 0.204 |
| CTTAGGC | 0.0265 | 0.12 | 0.219 | 0.379 | 0.0778 | -0.477 | 0.0678 | 0.00609 | 0.0219 | 0.0578 |
| CCGCCCC | -0.0946 | -0.12 | 0.0378 | -0.0449 | -0.116 | -0.239 | -0.262 | -0.102 | -0.099 | -0.153 |
| TTTGCGT | -0.024 | -0.166 | -0.789 | 0.562 | -0.0279 | -0.532 | 0.041 | -0.292 | -0.0364 | -0.351 |
| AGGTAAC | 0.168 | 0.0498 | 0.145 | -0.104 | 0.111 | 0.425 | 0.185 | 0.159 | 0.154 | 0.101 |
| TTGGTAC | -0.14 | -0.0594 | 0.231 | 0.0883 | -0.065 | 0.469 | -0.0737 | -0.0767 | 0.0652 | -0.0605 |
| AAACTGC | -0.0043 | 0.0263 | -0.256 | -0.236 | 0.0112 | -0.566 | 0.227 | 0.0617 | -0.0863 | 0.0369 |
| TAGGATA | 0.0799 | -0.00415 | 0.225 | 0.872 | 0.0266 | 1.5 | 0.109 | 0.155 | -0.0627 | 0.0794 |
| TGAGAGC | 0.165 | 0.089 | 0.0926 | 0.196 | 0.09 | -0.43 | 0.202 | 0.00911 | 0.0192 | 0.0674 |
